This is an account of results in ChEMBL document CHEMBL1157539, “Thousands of chemical starting points for antimalarial lead identification” (Nature, 2010).

Over roughly 13,000 compounds, “IFI” has its median near 4; the highest 2% begin near 17. This is one part of the list.

The experiment in a line: GSK_TCMDC: Inhibition Frequency Index (IFI). The number of non-kinase HTS assays where a compound showed > 50 % inhibition, expressed as a percentage of the number of such assays in which the compound was tested (-0 is zero). It is filed as functional.
For `CN1CCC(C(=O)N(Cc2ccc(-c3ccc(CNCCc4ccc(S(C)(=O)=O)cc4)cn3)cc2)C2Cc3ccccc3C2)CC1`, the IFI is 5.48%. The same measure for `Cc1cc(Nc2ccc(C(C)(C)C)cc2)c2[nH]ncc2n1`: 9.93%; for `C=CC[C@H](C[C@H](O)[C@H](Cc1ccccc1)NC(=O)c1ccc(-n2cccn2)cc1)C(=O)NC1CCCCC1`: 0.75%; for `O=C(NCc1ccc(Cl)c(Cl)c1)[C@H]1CNCCN1C(=O)c1ccccc1`: -0%. As for `CC1CN(c2ccc3occ(C(=O)Nc4ccc(-c5ccncc5)c(Cl)c4)c3c2)CC(C)N1C` (stereo unspecified), the figure is 4.86%; as for `COc1ccc2[nH]c(/C=C/c3cccc4ccc(C)nc34)nc2c1`, 6.42%; as for `CC1(C)N=C(N)N=C(N)N1c1ccc(Br)cc1`, 1.42%. The same measure for `CCCOc1ccc(CCNCCCCNCCc2ccc(OCCC)c3ccccc23)c2ccccc12`: 12.5%.

`CCOC(=O)c1c(NC(=O)c2ccccc2)sc2c(O)c(CNC3CCCCC3)ccc12`: the IFI came out at 1.46%. In turn, `CCOC(=O)c1ccc(NC(=O)N[C@@H](Cc2ccccc2)C(=O)NC2CCN(Cc3ccc(O)cc3)C2)cc1` (stereo partly specified) yielded an IFI of 4.41%.

The molecule `COc1ccc(Nc2nc(N/N=C/c3cc(Br)ccc3O)nc(Nc3ccc([N+](=O)[O-])cc3)n2)cc1` came in with an IFI of 3.01%. As for `Oc1cccc(Nc2nc(NCc3ccccc3)c3ccccc3n2)c1`, the figure is 9.55%; as for `O=C(NCCCCN1CC=C(c2ccc3c(c2OCC2CC2)CCCC3)CC1)c1ccc(-c2ccc(C(F)(F)F)cc2)cc1`, 5.22%. Molecule `CCOC(=O)C1=C(C)N=c2sc(=Cc3cc(Cl)ccc3O)c(=O)n2C1c1cc(OC)c(OC)cc1Br` (stereo unspecified) yielded an IFI of 2.82%. The same measure for `Oc1ccc2c(c1NCC1CCCCC1)CCCC2`: 3.03%; for `O=C(c1cccs1)N1CCN(c2ccc([N+](=O)[O-])c(NC3CC3)c2)CC1`: 2.38%. The same measure for `CN1CCN(c2nsc3ccc(-c4ccc(NC(=O)Nc5ccccc5)cc4)cc23)CC1`: 10%; for `CCc1cn2c3c(cc(C(=O)N[C@@H](Cc4cccc(Cl)c4)[C@H](O)CNC4CCOCC4)cc13)N(C)S(=O)(=O)CC2`: 3.17%; for `COc1ccc(CC2(c3ccc(F)cc3)N=C(N)N(CCCc3ccc4c(c3)OCO4)C2=O)cc1` (stereo unspecified): 6.45%. On to `CN(C)CCN(C)Cc1cccc(-c2ccc3c(Nc4ccc(F)cc4Cl)ccnc3c2)c1`, for which the IFI is 5.71%. As for `O=C(NCC1CCN(CCN2CCc3ccc4c(c3C2)OCO4)CC1)c1ccc(-c2ccc(C(F)(F)F)cc2)cc1`, the figure is 15.5%; as for `COC(=O)Cn1c(C2CCN(CC3CCN(C(=O)/C=C/c4ccc(Cl)c(Cl)c4)CC3)CC2)nc2ccccc21`, 1.42%; as for `COc1ccc2ncc(Cl)c(N3CCC(CCNCc4ccc5c(n4)NC(=O)CS5)CC3)c2c1`, 12.9%.

For `O=C(Nc1cccc(C(F)(F)F)c1)c1ccc(S(=O)(=O)NCC2CCN(CC3CCCCC3)CC2)cc1`, the IFI is 12.5%.

`c1ccc(Oc2ccc(Nc3ccnc4cc(-c5ccc(CNCCN6CCOCC6)o5)ccc34)cc2)nc1` registered an IFI of 2.9%.

`CCn1c(Sc2ccc(C#N)c([N+](=O)[O-])c2)nnc1-c1ccc(OC)cc1` returned an IFI of 1.43%. The same measure for `CCC[C@@H]([C@@H](CC1CCCCC1)C(=O)N[C@H](C(=O)Nc1nccc(N)n1)C(C)(C)C)N(O)C=O`: 2.86%; for `Cc1ccc(NC(=O)Nc2ccc(S(=O)(=O)c3ccc(NC(=O)Nc4ccc(C)c(Cl)c4)cc3)cc2)cc1Cl`: 4.26%.

As for `COc1ccc(C(=O)C2CC2CN(C)CCC(O)c2ccc(Cl)c(Cl)c2)cc1` (stereo unspecified), the IFI came to 3.48%. The same measure for `Cc1ccc(O)cc1Nc1ccnc2cc(-c3csc(CN4CCN(C)CC4)n3)ccc12`: 3.6%; for `COc1cc(Cc2cnc(N)nc2N)ccc1OCc1ccc(-c2csnn2)cc1`: 2.7%; for `CC(C)N1CCN(C(=O)c2ccc(CNCCCN3CCN(c4cccc(Cl)c4Cl)CC3)o2)CC1`: 10.8%. The same measure for `CC(=O)Nc1ncc(C(=O)Nc2cccc(-c3ccc(-c4nc5cc(F)ccc5[nH]4)cc3)c2)s1`: 8.33%; for `O=C(/C=C/C=C/c1ccccc1)NCCCCCN1CCC(c2c[nH]c3ccccc23)CC1`: 3.52%; for `Cc1cccc2nc(-c3ccc(-c4ccc(CN5CCC(CO)CC5)cc4)s3)[nH]c12`: 3.96%. In turn, `CC1CCC(NC(=O)c2nn(-c3ccc(Cl)cc3)c(=O)c3ccccc23)CC1` (stereo unspecified) had an IFI of 4.44%. As for `CCOc1cc(C(=O)NCc2cccc(C(F)(F)F)c2)ccc1-c1nc2cc(Cl)ccc2[nH]1`, the figure is 0.75%. `CCCCCN1CCC(NS(=O)(=O)c2ccc(C(=O)Nc3cccc(C(F)(F)F)c3)cc2)C1` (stereo unspecified): the IFI is 4.04%. As for `O=C(NCCN1CCN(S(=O)(=O)c2ccc(OC3CCNCC3)c(Br)c2)CC1)c1ccc(Cl)c(Cl)c1`, the figure is 0.74%; as for `CC(C)COc1ccc(Cl)cc1Cc1ccc(-c2nc3cc(CCN4CCCC4)ccc3[nH]2)o1`, 22.2%; as for `Nc1c(Cl)cc(C(O)CNCCCCCOCCCc2ccc3ncccc3c2)cc1Cl` (stereo unspecified), 13.3%. As to `Cc1ccc(-c2cc(C(=O)Nc3ccc(S(=O)(=O)N4CCCC(C)C4)cc3)[nH]n2)c(O)c1` (stereo unspecified), the IFI came to 0%.

The molecule `Cn1cccc1CCNCc1ccc(-c2cccc(-c3nc4ccccc4[nH]3)c2)cc1` had an IFI of 2.88%. As for `CC(C)N1CCN(C(CN2CCN(CCCOc3ccccc3-c3ccccc3)CC2)c2ccc(F)cc2)CC1` (stereo unspecified), the figure is 13.5%; as for `Cc1[nH]n(-c2cccc(Cl)c2)c(=O)c1-c1ccc(Cl)cc1`, 3.03%. The same measure for `OC(Cn1ccnc1)(c1ccc(Cl)cc1Cl)C1CCCCC1` (stereo unspecified): 3.97%; for `COCCNCc1ccc(-c2ccc3c(Nc4ccc(Cl)cc4F)ccnc3c2)o1`: 7.97%.

Molecule `Cc1cccc2nc(-c3ccc(-c4ccc(NC(=O)Nc5ccc(Cl)c(Cl)c5)cc4)s3)[nH]c12` had an IFI of 4%.

On to `CNC(=O)c1cc(S(=O)(=O)Nc2ccc(OC)cc2)cs1`, for which the IFI is -0%. As for `CCNc1cc(CC)nc(Nc2ccc(C)cc2)n1`, the figure is 5.71%. For `COCCN1CCC(N(Cc2ccc(-c3ccc(OC(F)(F)F)cc3)cc2)C(=O)Cn2c(CCc3cccc(F)c3F)cc(=O)c3ccccc32)CC1`, the IFI was 14.3%. `Clc1ccccc1CNc1noc(-c2sccc2Br)n1`: the IFI came out at 9.09%. As for `COc1ccc2nccc([C@@H](O)CN3CCC(NCc4nc5cc(F)ccc5o4)CC3)c2c1`, the figure is 2.24%; as for `CCN(CC)CCOc1cc2c(cc1Br)-c1cc(Br)c(OCCN(CC)CC)cc1C2=NO`, 9.84%. As for `CC1(C)NC(N)=NC(=N)N1OCOc1cc(Cl)c(Cl)cc1Cl`, the figure is 5.67%; as for `O=C(Nc1cccc(OC2CCN(Cc3ccccc3)CC2)c1)c1ccc([N+](=O)[O-])cc1`, 3.68%.
